T1: HCT116-huCEACAM5 (Homo sapiens, UniProt P06731, T210S)
T1 construct: expressed in transfected cells; host or cells: HCT-116
T1 sequence (P06731 35-676 T210S): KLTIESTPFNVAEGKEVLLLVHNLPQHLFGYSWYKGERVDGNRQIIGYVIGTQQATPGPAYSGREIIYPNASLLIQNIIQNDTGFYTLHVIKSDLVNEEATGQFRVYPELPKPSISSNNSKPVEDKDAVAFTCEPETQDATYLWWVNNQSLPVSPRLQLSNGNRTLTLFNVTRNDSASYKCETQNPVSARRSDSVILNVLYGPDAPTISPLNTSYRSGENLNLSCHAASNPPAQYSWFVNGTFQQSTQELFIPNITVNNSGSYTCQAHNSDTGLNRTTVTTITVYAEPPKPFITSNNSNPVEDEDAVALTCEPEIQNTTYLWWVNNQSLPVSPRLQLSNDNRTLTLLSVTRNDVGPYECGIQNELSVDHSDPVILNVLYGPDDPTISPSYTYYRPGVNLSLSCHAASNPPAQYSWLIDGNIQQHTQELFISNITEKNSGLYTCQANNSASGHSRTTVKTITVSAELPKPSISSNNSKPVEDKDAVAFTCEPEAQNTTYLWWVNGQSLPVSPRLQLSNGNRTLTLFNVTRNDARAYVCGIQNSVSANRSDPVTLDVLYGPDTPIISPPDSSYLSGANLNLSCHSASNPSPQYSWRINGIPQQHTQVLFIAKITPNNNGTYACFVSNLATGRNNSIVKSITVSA

T2: full-length human CEACAM5 (Homo sapiens, UniProt P06731, T210S)
T2 construct: The SPR kinetics against full-length human and cyno CEACAM5 were set up as follows
T2 sequence (P06731 35-702 T210S): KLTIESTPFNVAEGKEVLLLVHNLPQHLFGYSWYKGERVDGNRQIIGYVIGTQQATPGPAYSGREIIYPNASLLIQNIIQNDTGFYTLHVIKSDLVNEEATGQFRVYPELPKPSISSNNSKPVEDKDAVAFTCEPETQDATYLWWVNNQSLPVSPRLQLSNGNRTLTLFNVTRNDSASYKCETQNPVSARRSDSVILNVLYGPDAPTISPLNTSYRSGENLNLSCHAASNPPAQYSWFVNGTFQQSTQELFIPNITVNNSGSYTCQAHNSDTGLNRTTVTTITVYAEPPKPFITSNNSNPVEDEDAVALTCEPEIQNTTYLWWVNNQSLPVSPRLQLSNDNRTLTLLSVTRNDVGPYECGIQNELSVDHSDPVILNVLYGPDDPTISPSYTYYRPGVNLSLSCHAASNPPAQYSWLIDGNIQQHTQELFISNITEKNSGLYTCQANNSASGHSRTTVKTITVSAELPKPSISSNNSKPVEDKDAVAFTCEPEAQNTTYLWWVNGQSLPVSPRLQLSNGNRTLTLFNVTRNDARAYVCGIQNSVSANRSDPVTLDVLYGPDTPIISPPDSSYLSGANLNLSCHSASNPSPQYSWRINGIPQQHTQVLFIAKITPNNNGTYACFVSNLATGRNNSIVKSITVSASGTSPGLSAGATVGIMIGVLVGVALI


Columns and labels:
MKN45 = assay: Internalization of progeny antibodies (Incucyte, pHrodo red), Example 9; format: cell-based; conditions: hIgG1.3 progeny, 25 nM mAb, Table 13A
Description: (§1) Antibodies were evaluated for internalization using HCT-116-huCEACAM5, HCT-116-cyCEACAM5, and MKN45 cell lines.
The MKN45 or Ls174T cells were seeded at 10K cells/well (50 uL).
(§2) Cell lines were first analyzed for cell density and viability using a Vi-cell viability machine. The cell lines were diluted to 0.2E6 vc/mL in growth media, and a volume (50 uL) of each was dispensed to a flat-bottom 96-well plate to achieve cell counts of 10K cells/well. Ls174T media included MEM with 10% HI-FBS and 1% pen/strep. MKN45 media included RPMI (ATCC modification) with 10% HI-FBS and 1% pen/strep. HCT-116 media included McCoy's 5a with 10% HI-FBS, 1% pen/strep, and 6 μg/mL Blasticidin. Cells were allowed to adhere to wells of the 96-well plate (Corning Cat. No. 3595) at 37° C./5% CO2 for approximately 4 hours.
(§3) Each test mAb and control mAb was labeled by first pre-mixing the respective antibody with a pHrodo red (Fab conjugated to pH-sensitive; Thermo cat #Z25612) secondary reagent at a 3:1 dye:mAb molar ratio. A series of dilutions were prepared at 2× target concentration in growth media. The final mAb target concentration was 25 nM. A volume (50 uL) of labeled mAb samples were added to the plated cells to achieve a target mAb concentration (25 nM).
(§4) Coated plates contacted with the labeled mAbs were incubated at 37° C. for 30 minutes. Each plate was then read using an Incucyte apparatus, which collected images from the red and phase channels [10× objective; 3 images/well] for a 24-hour duration, with reads of plates every 30 minutes.

HCT116-huCEACAM5 = biological target: T1, HCT116-huCEACAM5; assay: as above; format: cell-based; conditions: hIgG1.3 progeny, 25 nM mAb, Table 13A
Description: as §1, §2, §3, §4

[1] = biological target: T2, full-length human CEACAM5; assay: SPR kinetics of progeny antibodies (BIACORE), Example 8; format: binding; conditions: hIgG1.3f progeny antibodies, Table 12A
Excerpt: (§5) Antibody genes with single amino acid substitutions and combinations of substitutions were synthesized in IgG expression vectors, transiently transfected into HEK cells, and purified via Protein A. In addition, the framework germline reversions described above were also incorporated into the sequences of the progeny. Purified IgG1.3 CEACAM5 mAb clones were characterized using the BIACORE® for high-throughput SPR-based monoclonal characterization.
(§6) The BIACORE® instrument was primed with 1×HBSP+ running buffer (Cytiva catalog no.BR100671). The CM5 chip (Cytiva catalog no. 29149604) was equilibrated to room temperature, and the BIACORE® instrument was re-primed. A human antibody Fc capture kit (Cytiva catalog no. 29234600) was utilized for this analysis. The human antibody Fc capture reagent was immobilized to both flow cells in all 8 flow channels of the CM5 chip via amine-coupling using the following conditions. Immobilization was performed at a temperature of 25° C. The anti-human Fc capture reagent was diluted to a concentration of 25 μg/mL in acetate pH5 buffer. The chip surface was activated by injecting a mixture of 1-ethyl-3-(-3-dimethylaminopropyl) carbodiimide hydrochloride (EDC) and N-hydroxy succinimide (NHS) for 420 seconds at a rate of 10 microliters per minute (uL/min). A concentration (25 ug/mL) of anti-human Fc capture reagent was then injected on the surface for 420 seconds at a rate of 10 uL/min. The remaining chip surface was blocked by injecting ethanolamine for 420 seconds at a rate of 10 uL/min.
(§7) The SPR kinetics against full-length human and cyno CEACAM5 were set up as follows. The antibody capture was performed by diluting the antibodies to a concentration of 10 nM in HBSP+ buffer. The 10 nM mAbs were captured for 20 seconds at 5 uL/min to achieve capture levels of approximately 100RU. Analyte binding was performed by first making a titration series of full-length human and cyno CEACAM5 that were prepared (from 500 nM-0.23 nM) with three-fold dilutions in HBSP+ buffer. The association rate was 180 seconds at 30 uL/min. The dissociation rate was 600 seconds at 30 uL/min. Regeneration was performed using two injections of 3M magnesium chloride MgCl2 for 30 seconds at 30 uL/min. A data fit was performed using a 1:1 binding model with global Rmax. Rmax reflects the maximal response when all ligand is occupied.

HCT116-cyCEACAM5 = assay: Internalization of progeny antibodies (Incucyte, pHrodo red), Example 9; format: cell-based, cynomolgus; conditions: for HCT116-cyCEACAM5 red/phase AUC (internalization): hIgG1.3 progeny, 25 nM mAb, Table 13A
Description: as §1, §2, §3, §4
Internalization of negative control mAbs was not observed.

full-length cyno CEACAM5 = assay: SPR kinetics of progeny antibodies (BIACORE), Example 8; format: binding, cynomolgus; conditions: hIgG1.3f progeny antibodies, Table 12A; for Kd: read-out: cyCEACAM5 KD
Excerpt: as §5, §6, §7

Molecule | HCT116-huCEACAM5 red/phase AUC (internalization) (HCT116-huCEACAM5) | huCEACAM5 ka [1] [M⁻¹ s⁻¹] | huCEACAM5 kd [1] [s⁻¹] | Kd (full-length cyno CEACAM5) [nM] | MKN45 24 hr red/phase AUC (internalization) (MKN45) | internalization to cynoCEACAM-5 expressing cells (HCT116-cyCEACAM5) | HCT116-cyCEACAM5 red/phase AUC (internalization) (HCT116-cyCEACAM5) | cyCEACAM5 ka (full-length cyno CEACAM5) [M⁻¹ s⁻¹] | cyCEACAM5 kd (full-length cyno CEACAM5) [s⁻¹]
MBP004: hIgG1.3f progeny of MBN001; VH SEQ ID NO: 67, VL SEQ ID NO: 68 (antibody, V domains shown) VH: QVQLVESGGGVVQPGRSLRLSCAASGITFSSHGMHWVRQAPGKGLEWVTFISYDGSYKSYVDSVKGRFTISRDNSKNTLYLQMNSLRAEDTAVYYCATGLTGTGAFDIWGQGTMVTVSS VL: [about 100 residues not shown] | 1.14 | 76000 | 0.00131 | 40.6 | 3.79 | efficiently internalized | 2.50 | 44100 | 0.00179
MBP011: hIgG1.3f progeny of MBN001; VH SEQ ID NO: 81, VL SEQ ID NO: 82 (antibody, V domains shown) VH: QVQLVESGGGVVQPGRSLRLSCAASGITFSSHGMHWVRQAPGKGLEWVTFISYDGSIKSYVDSVKGRFTISRDNSKNTLYLQMNSLRAEDTAVYYCATGLTGTGAFDIWGQGTMVTVSS VL: [about 100 residues not shown]YTFGQGTKLEIK | 1.07 | 47100 | 0.000671 | 19.3 | 3.41 |  | 2.35 | 42600 | 0.000823

Now from value to molecule, other results behind:

HCT116-huCEACAM5 red/phase AUC (internalization) (HCT116-huCEACAM5) | huCEACAM5 ka [1] [M⁻¹ s⁻¹] | huCEACAM5 kd [1] [s⁻¹] | Kd (full-length cyno CEACAM5) [nM] | Molecule | MKN45 24 hr red/phase AUC (internalization) (MKN45) | internalization to cynoCEACAM-5 expressing cells (HCT116-cyCEACAM5) | HCT116-cyCEACAM5 red/phase AUC (internalization) (HCT116-cyCEACAM5) | cyCEACAM5 ka (full-length cyno CEACAM5) [M⁻¹ s⁻¹] | cyCEACAM5 kd (full-length cyno CEACAM5) [s⁻¹]
1.13 | 89200 | 0.000527 | 19.5 | MBP008: hIgG1.3f progeny of MBN001; VH SEQ ID NO: 75, VL SEQ ID NO: 76 (antibody, V domains shown) VH: QVQLVESGGGVVQPGRSLRLSCAASGITFSSHGMHWVRQAPGKGLEWVTFISYDGSYKSYVDSVKGRFTISRDNSKNTLYLQMNSLRAEDTAVYYCATGLTGTNALDIWGQGTMVTVSS VL: [about 100 residues not shown]YTFGQGTKLEIK | 4.15 |  | 2.54 | 40300 | 0.000784
1.14 | 85100 | 0.000513 | 16.3 | MBP006: hIgG1.3f progeny of MBN001; VH SEQ ID NO: 71, VL SEQ ID NO: 72 (antibody, V domains shown) VH: QVQLVESGGGVVQPGRSLRLSCAASGITFSSHGMHWVRQAPGKGLEWVTFISYDGSYISYVDSVKGRFTISRDNSKNTLYLQMNSLRAEDTAVYYCATGLTGTGANDIWGQGTMVTVSS VL: [about 100 residues not shown] | 3.55 |  | 2.40 | 48600 | 0.000793

— patent US12521446B2, “Anti-CEACAM5 antibody drug conjugates” (Bristol-Myers Squibb Company, priority 2024, dated 2026)
